{"source": "PubChem BioAssay (Tox21)", "note": "Several values for one entry are separate records, joined by “and”; a condition that tells them apart may be missing. Identical values can stand only once. The shares of active, inactive and inconclusive entries below differ from those in the screen. Potencies of inconclusive entries are doubtful fits and often do not repeat. Activity calls are given as the source filed them. Unless noted, the call rests on the fitted dose curve; in most records, active means well fitted cell-killing curve with a large enough effect in the repeat runs; inconclusive means weak or mixed curves, or effect the other way; inactive means no such curve, though single readings can be large or run the other way. On the % scale 0 is the no-effect control and ±100 the full control effect; potency means the concentration at half of the fitted maximal effect; tags describe the fitted curve by direction and shape or compound fluorescence and quenching.", "data": [{"target": "Glucocorticoid receptor (Homo sapiens) (UniProt P04150)", "sequence (P04150 whole entry, looked up)": "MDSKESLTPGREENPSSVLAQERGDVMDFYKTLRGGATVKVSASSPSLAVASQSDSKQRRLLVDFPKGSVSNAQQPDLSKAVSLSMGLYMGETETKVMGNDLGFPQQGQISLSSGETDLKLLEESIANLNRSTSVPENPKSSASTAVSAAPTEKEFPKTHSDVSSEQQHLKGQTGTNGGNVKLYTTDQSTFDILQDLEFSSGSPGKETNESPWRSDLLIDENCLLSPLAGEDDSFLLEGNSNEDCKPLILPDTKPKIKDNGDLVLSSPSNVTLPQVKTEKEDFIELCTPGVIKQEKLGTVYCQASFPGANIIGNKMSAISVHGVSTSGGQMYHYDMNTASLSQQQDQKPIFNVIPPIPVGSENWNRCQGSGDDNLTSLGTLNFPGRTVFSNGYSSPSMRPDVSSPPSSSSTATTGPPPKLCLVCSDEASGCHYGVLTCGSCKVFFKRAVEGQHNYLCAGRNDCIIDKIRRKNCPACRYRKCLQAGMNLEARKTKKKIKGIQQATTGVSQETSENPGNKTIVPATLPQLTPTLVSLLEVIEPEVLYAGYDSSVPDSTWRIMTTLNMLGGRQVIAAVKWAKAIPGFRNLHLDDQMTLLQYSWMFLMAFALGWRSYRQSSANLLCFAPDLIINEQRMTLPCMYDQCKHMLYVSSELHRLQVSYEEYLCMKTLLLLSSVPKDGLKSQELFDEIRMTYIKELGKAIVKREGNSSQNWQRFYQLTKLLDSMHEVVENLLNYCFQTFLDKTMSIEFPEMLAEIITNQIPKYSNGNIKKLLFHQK", "experiment": "qHTS assay to identify small molecule antagonists of the glucocorticoid receptor (GR) signaling pathway (AID 720692; active means well fitted inhibition curve with a large enough effect in the signal ratio in the repeat runs, not every such curve was filed as active; inconclusive means weak or mixed curves, or effect the other way; inactive means no such curve, though single readings can be large or run the other way; the % refers to the signal ratio)", "conditions": "GR-bla HeLa, beta-lactamase FRET ratio, dexamethasone-stimulated, 18 h; activity change, negative = inhibition: at 58.5 µM (top of the series) unless noted", "summary_of_the_method": "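GR-bla HeLa cells (beta-lactamase reporter under glucocorticoid response element) were pre-plated 4 h at 37 C, treated with compounds plus 5 nM dexamethasone (final) for 18 h, then read by LiveBLAzer B/G FRET fluorescence after 2 h.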", "values": [{"compound": "CC(C)(c1ccccc1)c1cc(-n2nc3ccccc3n2)c(O)c(C(C)(C)c2ccccc2)c1", "activity change, negative = inhibition": "inactive: -2.49%"}, {"compound": "NNC(=O)c1ccccc1", "activity change, negative = inhibition": "inconclusive: -2.06% [at 78.9 µM]"}, {"compound": "CC(C)=CC1C(C(=O)OC(C#N)c2cccc(Oc3ccccc3)c2)C1(C)C", "note": "(centres undefined)", "activity change, negative = inhibition": "inconclusive: -32.2%"}, {"compound": "O=C(NC(O)C(Cl)(Cl)Cl)NC(O)C(Cl)(Cl)Cl", "note": "(centres undefined)", "activity change, negative = inhibition": "inactive: 4.13%"}, {"compound": "CCc1cccc(CC)c1N(COC)C(=O)CCl", "Potency": "inconclusive: 11.9 µM [inhibitor, partial curve, poor fit] and inconclusive: 49 µM [inhibitor]"}, {"compound": "CCOC(=O)c1ccccc1C(=O)OCC", "Potency": "inactive"}, {"compound": "CS(=O)(=O)c1ccc(C(=O)C2C(=O)CCCC2=O)c([N+](=O)[O-])c1", "activity change, negative = inhibition": "inconclusive: -21.3% [at 78.9 µM]"}, {"compound": "CCCCC(CC)COC(=O)c1ccccc1C(=O)OCC(CC)CCCC", "note": "(centres undefined)", "Potency": "inconclusive: 6.16 µM [inhibitor]"}, {"compound": "O=C(O)c1cc(I)cc(I)c1I", "activity change, negative = inhibition": "inactive: -16.8% [at 78.9 µM]"}, {"compound": "O=S(=O)(O)C(F)(F)C(F)(F)C(F)(F)C(F)(F)C(F)(F)C(F)(F)F", "activity change, negative = inhibition": "inactive: 2.11%"}, {"compound": "c1cc2c(c(N3CCNCC3)c1)OCCO2", "activity change, negative = inhibition": "inactive: 7.77%"}, {"compound": "NNC(N)=S", "activity change, negative = inhibition": "inconclusive: -3.08%"}, {"compound": "BrC(Br)Br", "activity change, negative = inhibition": "inconclusive: 21.9%"}, {"compound": "NCCCNCCCN", "Potency": "inconclusive: 15.7 µM [activator, partial curve, poor fit]"}]}, {"test_system": "not listed separately", "experiment": "qHTS assay to identify small molecule antagonists of the glucocorticoid receptor (GR) signaling pathway - cell viability counter screen (AID 720693); further: nearly all actives have a fitted effect of over 55% in size", "conditions": "GR-bla HeLa viability, CellTiter-Glo luminescence, 18 h, with 5 nM dexamethasone present; viability change, negative = cytotoxic: at 58.5 µM (top of the series) unless noted", "values": [{"compound": "C[C@]12C=CC3=C4CCC(=O)C=C4CC[C@H]3[C@@H]1CC[C@@H]2O", "Potency": "active: 24.4 µM"}, {"compound": "C=COC(C)=O", "viability change, negative = cytotoxic": "inactive: 12.3% [at 78.9 µM]"}, {"compound": "Brc1ccc(Oc2ccccc2)cc1", "Potency": "inactive"}, {"compound": "CS(=O)(=O)c1ccc(C(=O)C2C(=O)CCCC2=O)c([N+](=O)[O-])c1", "Potency": "inconclusive: 49.9 µM [rising, partial curve, poor fit]"}, {"compound": "CCCCC(CC)COC(=O)c1ccccc1C(=O)OCC(CC)CCCC", "note": "(centres undefined)", "Potency": "inconclusive: 1.1 µM [rising, single point]"}]}, {"test_system": "not listed separately", "experiment": "qHTS assay for identifying genotoxic compounds that show differential cytotoxicity against isogenic chicken DT40 cell lines with known DNA damage response pathways - wild type cell line (AID 743012); further: nearly all actives have a fitted effect of over 60% in size", "conditions": "DT40 wild type chicken cells viability, CellTiter-Glo, 40 h; activity change, negative = cytotoxicity: at 68.4 µM (top of the series) unless noted", "summary_of_the_method": "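Parental DNA repair-proficient DT40 cells, 300 per well, were pre-incubated ~0.5 h at 37 C/5% CO2, pin-dosed with compounds in DMSO, then incubated 40 h. Viability was read as CellTiter-Glo luminescence after 30 min at room temperature.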", "values": [{"compound": "C[C@]12C=CC3=C4CCC(=O)C=C4CC[C@H]3[C@@H]1CC[C@@H]2O", "Potency": "inconclusive: 68.1 µM [cytotoxic, single point]"}, {"compound": "C=COC(C)=O", "activity change, negative = cytotoxicity": "inactive: 14.8% [at 95 µM]"}, {"compound": "NNC(=O)c1ccccc1", "activity change, negative = cytotoxicity": "inactive: -14.7% [at 95 µM]"}, {"compound": "CCc1cccc(CC)c1N(COC)C(=O)CCl", "Potency": "inconclusive: 66.4 µM [cytotoxic, single point]"}, {"compound": "CC1(C)CON(Cc2ccccc2Cl)C1=O", "Potency": "inconclusive: 68.6 µM [cytotoxic, single point]"}, {"compound": "Brc1ccc(Oc2ccccc2)cc1", "Potency": "inconclusive: 70.3 µM [cytotoxic, single point] and inconclusive: 68.6 µM [cytotoxic]"}, {"compound": "CS(=O)(=O)c1ccc(C(=O)C2C(=O)CCCC2=O)c([N+](=O)[O-])c1", "Potency": "inconclusive: 15.6 µM [rising, full curve, poor fit]"}, {"compound": "CCC(C)(c1ccc(O)cc1)c1ccc(O)cc1", "Potency": "inconclusive: 76.9 µM [cytotoxic, single point] and active: 27.3 µM"}, {"compound": "CC(C)NC(=O)N1CC(=O)N(c2cc(Cl)cc(Cl)c2)C1=O", "Potency": "inconclusive: 68.6 µM [cytotoxic, single point]"}, {"compound": "CCCCC(CC)COC(=O)c1ccccc1C(=O)OCC(CC)CCCC", "note": "(centres undefined)", "Potency": "inconclusive: 2.17 µM [rising, full curve, poor fit]"}, {"compound": "CN(C)CCc1c[nH]c2ccccc12", "Potency": "inconclusive: 121 µM [cytotoxic, partial curve, poor fit]"}, {"compound": "COC(=O)c1ccccc1N", "Potency": "inconclusive: 15.4 µM [rising, partial curve, poor fit]"}, {"compound": "Cc1cc(Cl)ccc1OC(C)C(=O)O", "note": "(centres undefined)", "Potency": "inconclusive: 2.68 µM [rising, single point]"}, {"compound": "COc1ccccc1OC", "Potency": "inconclusive: 2.43 µM [rising, full curve, poor fit]"}, {"compound": "NNC(N)=S", "Potency": "inconclusive: 68.6 µM [cytotoxic, single point]"}, {"compound": "CCOc1ccc(C(C)(C)COCc2cccc(Oc3ccccc3)c2)cc1", "activity change, negative = cytotoxicity": "inactive: -12.7%"}, {"compound": "[CH3][Sn]([CH3])([Cl])[Cl]", "Potency": "inconclusive: 78.2 µM [cytotoxic, single point]"}, {"compound": "NCCCNCCCN", "Potency": "inconclusive: 62.1 µM [cytotoxic, single point]"}]}, {"test_system": "not listed separately", "experiment": "qHTS assay for identifying genotoxic compounds that show differential cytotoxicity against isogenic chicken DT40 cell lines with known DNA damage response pathways - Rev3 mutant cell line (AID 743014); further: nearly all actives have a fitted effect of over 55% in size", "conditions": "chicken DT40 Rev3-/- viability, CellTiter-Glo, 40 h; activity, negative = cytotoxicity: at 68.4 µM (top of the series)", "values": [{"compound": "NNC(=O)c1ccccc1", "Potency": "inconclusive: 70.5 µM [cytotoxic, partial curve, poor fit]"}, {"compound": "COC(=O)c1sccc1S(=O)(=O)NC(=O)Nc1nc(C)nc(OC)n1", "Potency": "inactive and inconclusive: 24.3 µM [cytotoxic, partial curve, poor fit]"}, {"compound": "ClC=C(Cl)Cl", "Potency": "inconclusive: 26.6 µM [rising, partial curve, poor fit]"}, {"compound": "CCc1cccc(CC)c1N(COC)C(=O)CCl", "Potency": "active: 5.91 µM and active: 5.45 µM"}, {"compound": "Brc1ccc(Oc2ccccc2)cc1", "Potency": "inconclusive: 70.3 µM [cytotoxic, single point]"}, {"compound": "O=S(=O)(Oc1ccc(Cl)cc1)c1ccc(Cl)cc1", "activity, negative = cytotoxicity": "inconclusive: -40% [cytotoxic]"}, {"compound": "CC(C)NC(=O)N1CC(=O)N(c2cc(Cl)cc(Cl)c2)C1=O", "Potency": "inconclusive: 61.1 µM [cytotoxic, partial curve]"}, {"compound": "CCCCC(CC)COC(=O)c1ccccc1C(=O)OCC(CC)CCCC", "note": "(centres undefined)", "Potency": "inconclusive: 68.6 µM [cytotoxic]"}, {"compound": "CCCN(CCC)CCc1c[nH]c2ccccc12", "Potency": "inconclusive: 47.9 µM [cytotoxic, partial curve]"}, {"compound": "COP(=S)(NC(C)C)Oc1ccc(C)cc1[N+](=O)[O-]", "note": "(centres undefined)", "Potency": "inconclusive: 77 µM [cytotoxic]"}, {"compound": "Cc1cc(C)c(C(=O)P(=O)(C(=O)c2c(C)cc(C)cc2C)c2ccccc2)c(C)c1", "Potency": "inconclusive: 68.6 µM [cytotoxic, single point]"}, {"compound": "O=C(O)c1cc(I)cc(I)c1I", "activity, negative = cytotoxicity": "inactive: -8.46% [at 95 µM]"}, {"compound": "c1ccc(C2CC2)c(OCC2=NCCN2)c1", "Potency": "inconclusive: 2.98 µM [cytotoxic, full curve]"}, {"compound": "c1ccc(-c2ccccc2)cc1", "Potency": "inactive"}, {"compound": "CNC(C)Cc1ccc2c(c1)OCO2", "note": "(centres undefined)", "Potency": "inconclusive: 33.6 µM [cytotoxic, full curve]"}, {"compound": "NNC(N)=S", "Potency": "active: 20.1 µM and inconclusive: 68.6 µM [cytotoxic, single point]"}, {"compound": "[CH3][Sn]([CH3])([Cl])[Cl]", "Potency": "active: 62.1 µM and active: 27.3 µM"}]}]}
